According to PubChem BioAssay AID1240 (Sanford-Burnham Center for Chemical Genomics, 2008):
“And” between values parts separate entries of the source, which are not always exact repeats. Equal values may be shown once. The campaign covered roughly 50,000 compounds. About 800 (1.6%) showed an effect of 50% or more. The list shows a part of the results.

The molecules below were run against Bcl-2-like protein 10 (Homo sapiens) (UniProt Q9HD36) (assay: Phenotype converters, Bcl-B/TR3 peptide binding displacement, primary biochemical FP (AID 1240;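 also: 0% = Bcl-B with tracer peptide and DMSO and 100% = tracer peptide lacking Bcl-B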)). Conditions: GST-Bcl-B / FITC-TR3 peptide fluorescence polarization; stronger effect = higher value; compound at 3.75 mg/L.
Sequence of UniProt Q9HD36 (Q9HD36 whole entry, looked up): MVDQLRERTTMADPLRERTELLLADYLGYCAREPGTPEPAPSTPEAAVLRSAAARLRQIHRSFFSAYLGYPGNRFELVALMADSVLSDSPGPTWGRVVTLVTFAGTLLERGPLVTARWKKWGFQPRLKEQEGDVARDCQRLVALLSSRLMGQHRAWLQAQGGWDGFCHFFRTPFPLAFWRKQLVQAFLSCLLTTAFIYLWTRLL

First: CC1=C(C(=O)OCCOc2ccccc2)C(c2ccc(C(C)C)cc2)C2=C(CCCC2=O)N1 (stereo not given)
Second: CC(C)c1ccc(NC(=O)CCN2C(=O)c3ccccc3C2=O)cc1
The displacement of the first is higher: -0.4% for the first, -23.2% for the second.

Compared with COc1ccc(OC)c(N2C(=O)NC(=O)C(=Cc3ccc(C)o3)C2=O)c1, Cc1ccc(N2C(=O)NC(=O)/C(=C\c3ccc(OCC(=O)O)c(Br)c3)C2=O)cc1 is lower in displacement: 12.2% for the first, -12.7% for the second.

First: O=C(Nc1cccc(Cl)c1)N1CCN(C/C=C/c2ccccc2)CC1
Second: COc1cccc(/C=N/N2CCN(Cc3ccccc3Cl)CC2)c1
The displacement of the first is lower: -2.9% for the first, 11.7% for the second.

First: COC(=O)c1c(NC(=S)Nc2ccccc2)sc(Cc2ccccc2)c1C
Second: Cc1ccc(-n2c(SCC(=O)Nc3ccccc3)nc(O)c(Cc3ccccc3)c2=O)cc1
The displacement of the first is higher: 29.5% for the first, -6% for the second.

Compared with COC(=O)/C(=C/C(=O)c1ccc(C)cc1)Nc1c(C)n(C)n(-c2ccccc2)c1=O, COC(=O)C1=C(C)NC(C)=C(C(=O)OC)C1c1cn(-c2ccccc2)nc1-c1ccco1 is higher in displacement: -5% for the first, 8.3% for the second.

Compared with CC(=O)c1cc(CN2C(=O)c3ccccc3C2=O)cs1, Cn1c(=O)c(N)c2c3c(cccc31)C(=O)c1ccccc1-2 is higher in displacement: -8.8% for the first, 154% for the second.

Going from Cc1cc(C)cc(N2C(=O)NC(=O)/C(=C\c3c(F)cccc3Cl)C2=O)c1 to COc1cc(Br)c(/C=C2\C(=O)NC(=S)N(c3ccccc3)C2=O)cc1OC, the displacement rises from -7.7% to 3.7%.

Going from Cc1ccc(/C=N/Nc2nn[nH]n2)c2nsnc12 to COc1ccc(/C=N/Nc2nncc(=O)[nH]2)cc1OC, the displacement rises from -5.4% to -2.1%.

First: COc1ccc(C(=O)CSc2ncn(-c3ccccc3)n2)cc1
Second: COc1ccc(C(=O)CSc2nnc(-c3ccco3)n2-c2ccccc2)cc1
The displacement of the first is higher: 14.1% for the first, -7.3% for the second.

First: O=C(Nc1cc(-c2nc3ccccc3s2)ccc1Cl)c1ccc([N+](=O)[O-])cc1
Second: Cc1cnc(NC(=O)c2ccc([N+](=O)[O-])cc2)s1
The displacement of the first is higher: 90.8% for the first, -15% for the second.

Going from CN(N)c1nc(N2CCCCC2)nc(N2CCCCC2)n1 to Oc1ccc(/C=N/Nc2nc(N3CCOCC3)nc(N3CCOCC3)n2)c(O)c1, the displacement rises from 3.6% to 13%.

Compared with CC1(C)NC(=S)N(c2ccccc2)N1, Cc1nc2ccccc2n1-c1ccccc1 is higher in displacement: -3% for the first, 8.4% for the second.

Going from COc1ccccc1/C=C1\SC(=S)N(CCC(=O)OCCN(C)C)C1=O to COc1ccc([N+](=O)[O-])cc1/C=C1/SC(=S)N(CC(=O)O)C1=O, the displacement falls from 11.8% to 9.4%.

First: C=CCn1c(=N)n(CC(O)C(C)(C)C)c2ccccc21 (stereo not given)
Second: CCn1c2ccccc2c2cc(CN3CCNCC3)ccc21
The displacement of the first is lower: -4.7% for the first, 7.5% for the second.

Going from CCOc1cc(C(=O)Nc2ccc(F)cc2)cc(OCC)c1OCC to COCCOC(=O)c1ccc(NC(=O)COc2cccc(C)c2)cc1, the displacement falls from 11.9% to -7.7%.

Going from Cc1cccc([N+](=O)[O-])c1N=Cc1ccc(N(C)C)cc1 to Cn1c(/C(C#N)=C/c2cccc([N+](=O)[O-])c2O)nc2ccccc21, the displacement rises from -4.5% to 7.5%.

Compared with CCc1nnc(NS(=O)(=O)c2ccc(NS(=O)(=O)c3ccc4c(c3)C(=O)c3ccccc3-4)cc2)s1, O=S(=O)(Nc1ccc(N2CCCCC2)cc1)c1ccc(Cl)cc1 is lower in displacement: 14.7% for the first, -22% for the second.

Going from COc1ccc(C(=O)O)cc1NC(=O)CC(=O)c1ccc([N+](=O)[O-])cc1 to CCC(=O)c1ccc(OC(=O)c2ccc(Br)cc2)cc1, the displacement rises from -15% to -0.1%.

Compared with Cc1ccc(N/N=C/c2c(C)[nH]n(-c3ccc(C)c(C)c3)c2=O)c(C)c1, Cc1ccc(OCC(=O)NNC(=O)c2ccccc2C)c(C)c1 is higher in displacement: 1.2% for the first, 3.8% for the second.

Going from O=C1c2ccccc2C(=O)C12OC(c1ccc(Br)cc1)C1(C(=O)c3ccccc3C1=O)C2c1ccc(F)cc1 (stereo not given) to Cc1ccc(-n2c(-c3ccccc3F)nc3c(cnn3-c3ccccc3)c2=O)cc1, the displacement falls from 2.6% to 0.3%.

Compared with Cc1ccc(Cl)cc1NC(=O)c1cc(Cl)ccc1Cl, COc1ccc(OC)c(NC(=O)c2ccc(Cl)c(Cl)c2)c1 is higher in displacement: -0.8% for the first, 2.1% for the second.

Compared with O=C(/C=C/c1ccccc1Cl)n1cnc2ccccc21, O=C1/C(=C/c2ccccc2Cl)SC(=S)N1c1ccc(O)cc1 is higher in displacement: 2.8% for the first, 7.4% for the second.

Going from Cc1ccc(C(=O)c2ccc(Br)cc2)cc1S(N)(=O)=O to CCOC(=O)c1ccc(NS(=O)(=O)c2cccs2)cc1, the displacement falls from 13% to 3.9%.

Going from O=c1c(-c2ccc(Cl)cc2Cl)coc2c(CN3CCCCCC3)c(O)ccc12 to O=C(O)c1cc(S(=O)(=O)N2CCCCCC2)c(Cl)cc1Cl, the displacement rises from -6.1% to 5.7%.

Going from O=C(N(c1cccc(C(F)(F)F)c1)C1C=CS(=O)(=O)C1)C(F)(F)F (stereo not given) to O=C(Nc1cccc(C(F)(F)F)c1)Nc1ccc(Cl)c(Cl)c1, the displacement falls from 14.6% to 0.5%.

First: Cc1ccc(N2C(=O)/C(=C/c3ccc(OCc4cccc(C(=O)O)c4)cc3)C(=O)NC2=S)cc1
Second: CCOc1ccc(N2C(=O)S/C(=C\c3ccc(C)cc3)C2=O)cc1
The displacement of the first is higher: 11.7% for the first, -5.8% for the second.

Compared with Cc1ccc(C(=O)CSc2nc(N)c(C#N)c(-c3ccc(O)cc3)c2C#N)cc1, Cc1ccc(C(=O)O/N=C(\N)c2ccccn2)cc1 is lower in displacement: 2.3% for the first, -3.5% for the second.

Compared with COc1ccc(C(=O)OCCNC(=O)c2ccc[n+](C)c2)cc1OC, Cc1cccc(OC(=O)NCCOC(=O)N(O)c2ccc(Cl)cc2)c1 is lower in displacement: 10% for the first, 6.7% for the second.

First: Cc1nnc(C)n1/N=C\c1cccc(Br)c1
Second: Cc1n[nH]c(C)c1Sc1ccccc1N=Cc1ccccc1
The displacement of the first is higher: 30.3% for the first, 7.2% for the second.

Compared with Cc1nc2cc(NC(=O)c3ccccc3)ccc2n1C, CN(C)c1ccc(-c2nc3cc(NC(=O)c4ccccc4Br)ccc3o2)cc1 is higher in displacement: -8.3% for the first, 1.6% for the second.

Going from CCOc1ccc(S(=O)(=O)N=Nc2c(O)[nH]c3ccccc23)c2ccccc12 to COc1ccc(/C=N/Nc2nc3ccccc3[nH]2)c2c(OC)cccc12, the displacement falls from -5.4% to -24.8%.

Going from N/C(Cc1cccc2ccccc12)=N\OC(=O)c1ccc(F)cc1 to Oc1c(/C=N/c2ncn[nH]2)ccc2ccccc12, the displacement falls from 31.7% to -4.7%.

First: CC(=O)Oc1cccc(C(=O)Nc2cc(C)on2)c1
Second: Cc1ccc(/C=N/NC(=O)c2ccco2)o1
The displacement of the first is lower: -15.4% for the first, 18.4% for the second.

Compared with COc1ccc2nc(NC(=O)NC34CC5CC(CC(C5)C3)C4)sc2c1, COc1ccc(NC(=S)NC(=O)C23CC4CC(CC(C4)C2)C3)cc1 is lower in displacement: 12.3% for the first, -9.8% for the second.

Going from Cc1nc(-c2ccccc2)sc1C(=O)Nc1ccc2c3c(cccc13)CC2 to CCC1CCc2c(sc3nc(SCC(=O)NCc4ccccc4)n(-c4ccccc4)c(=O)c23)C1 (stereo not given), the displacement falls from 7.9% to -65.4%.

Going from CC(NC(=O)c1cc2nc(-c3ccco3)cc(C(F)(F)F)n2n1)C1CC2CCC1C2 (stereo not given) to NC(=O)c1nn2c(c1Cl)NC(c1cccs1)CC2C(F)(F)F (stereo not given), the displacement falls from 9.8% to 7.7%.

Compared with O=C(N/N=C/c1cccs1)C(=O)Nc1ccc(Br)cc1, CCc1ccc(N2CC(C(=O)Nc3ccc(Br)cc3)CC2=O)cc1 (stereo not given) is higher in displacement: 10.3% for the first, 13.1% for the second.

Going from COc1ccccc1NC(=O)CC1S/C(=N\N=C\c2ccccc2)NC1=O (stereo not given) to O=C1CSC(c2ccccc2)N1/N=C/c1ccccc1 (stereo not given), the displacement rises from 0.9% to 2%.

First: COc1cc(NC(=O)COc2cc(C)c(Cl)c(C)c2)c(OC)cc1Cl
Second: Cc1cc2oc(=O)cc(C)c2cc1NC(=O)/C=C/C(=O)O
The displacement of the first is lower: 4.8% for the first, 34.7% for the second.

Going from CCOc1ccc2ccc(OCC)c(/C=c3\sc4nc5ccccc5n4c3=O)c2c1 to COc1ccccc1Nc1ncnc2ccc(Br)cc12, the displacement falls from -3.2% to -4.4%.

First: O=C1NC(=S)N(c2cccc(Br)c2)C(=O)/C1=C/c1ccc(-c2cccc([N+](=O)[O-])c2)o1
Second: O=C1C(=O)N(c2cccc([N+](=O)[O-])c2)C(c2ccccc2Cl)/C1=C(/O)c1ccccc1 (stereo not given)
The displacement of the first is higher: 10.8% for the first, 2.1% for the second.

Compared with CCOC(=O)c1c(NC(=O)c2cc(Cl)ccc2[N+](=O)[O-])sc2c1CCCC2, O=c1[nH]c(-c2cccc(O)c2)nc2sc3c(c12)CCCC3 is higher in displacement: -13.5% for the first, -12.3% for the second.

First: CCOC(=O)C1CCN(C(=O)c2ccc(I)cc2)CC1
Second: COc1ccc(C(=O)N2CCN(C3CCCCC3)CC2)cc1OC
The displacement of the first is higher: 13.3% for the first, -0.7% for the second.

Going from CCOC(=O)C(=CNCC(=O)O)C(=O)OCC to CCCCN(CCCC)C(=O)c1ccccc1, the displacement rises from -10.7% to 12.1%.

Going from COCCCN1C(=O)C(=Cc2c(NCC3CCCO3)nc3ccccn3c2=O)SC1=S (stereo not given) to Cc1nnc(SCC(=O)n2c3c(c4ccccc42)CCCC3)s1, the displacement falls from -0.2% to -10.9%.

Compared with O=C(O)c1cccc(N(CCO)CCO)c1, CN(CCN(C)/N=C/c1cc(Cl)ccc1O)/N=C/c1cc(Cl)ccc1O is lower in displacement: 6% for the first, -1.2% for the second.

Compared with O=S1(=O)N=C(N/N=C/c2ccccc2O)c2ccccc21, O=c1cc(O)c2ccccc2n1Cc1ccccc1 is lower in displacement: -2.1% for the first, -4.8% for the second.

Compared with COc1ccc(C(=O)Nc2ccc3oc(-c4ccc(N(C)C)cc4)nc3c2)cc1, Clc1ccc(-c2noc(-c3ccc(Br)cc3)n2)cc1 is higher in displacement: 3.1% for the first, 3.3% for the second.

First: O=C(CCC1CCCCC1)Nc1ccc([N+](=O)[O-])cn1
Second: O=C1C=C(NCc2ccc(Cl)c(Cl)c2)C2(CCCCC2)O1
The displacement of the first is lower: -4% for the first, 6.6% for the second.

Going from COc1ccc(S(=O)(=O)Nc2ccccc2Br)cc1 to COc1ccc(Cl)cc1N(CC(=O)NCCSc1ccccn1)S(=O)(=O)c1ccccc1, the displacement rises from -7.9% to 17.7%.

First: Cc1c(NC(=O)c2cccs2)cccc1-c1nc2ncccc2o1
Second: COC(=O)C1=C(C)N(C)C(=O)/C1=C\c1cccs1
The displacement of the first is higher: 3.8% for the first, -9.1% for the second.

Going from C=CCOc1ccc(C=C2C(=O)N(C)C(=O)N(C)C2=O)cc1OC to O=C1NC(=O)/C(=C\c2cc(Br)ccc2OCc2ccc(F)cc2)S1, the displacement falls from 14.7% to -5.3%.

Compared with O=C(NCCCO)C(=O)Nc1nc(C23CC4CC(CC(C4)C2)C3)cs1, O=c1[nH]c(-c2ccc(O)c(Br)c2)nc2sc3c(c12)CCCC3 is higher in displacement: -50.2% for the first, -26.2% for the second.

First: C/C(=N\N1CCN(Cc2ccccc2Cl)CC1)c1ccccc1O
Second: Fc1ccc(-c2nnn(Cc3c(F)cccc3Cl)n2)cc1
The displacement of the first is higher: 13.5% for the first, -6.4% for the second.

Molecule CCN(CC)c1ccc(N=Cc2c(O)[nH]c(=S)[nH]c2=O)cc1 has a displacement of 12.9%.

With Cc1cc(-c2nc3ccccc3[nH]2)c2ccccc2n1 the displacement was -8% and 12.7%.
